Laboratory results as given in PMC4336329 (PLoS ONE, 2015).
Screen size: about 310,000 compounds; about 2,200 (0.71%) showed an effect of 50% or more. Effects have a minus sign here. Some of the results follow. Where a SMILES comes first, the peptide text is derived from it. The star is where a group is joined. Cbz = O=C(OCc1ccccc1)*

Biological target: human ether-à-go-go-related gene (hERG) potassium channel (human, UniProt Q12809)
Assay: primary screen, population patch clamp on CHO cells stably expressing hERG

Chain of human ether-à-go-go-related gene (hERG) potassium channel (Q12809 whole entry, looked up): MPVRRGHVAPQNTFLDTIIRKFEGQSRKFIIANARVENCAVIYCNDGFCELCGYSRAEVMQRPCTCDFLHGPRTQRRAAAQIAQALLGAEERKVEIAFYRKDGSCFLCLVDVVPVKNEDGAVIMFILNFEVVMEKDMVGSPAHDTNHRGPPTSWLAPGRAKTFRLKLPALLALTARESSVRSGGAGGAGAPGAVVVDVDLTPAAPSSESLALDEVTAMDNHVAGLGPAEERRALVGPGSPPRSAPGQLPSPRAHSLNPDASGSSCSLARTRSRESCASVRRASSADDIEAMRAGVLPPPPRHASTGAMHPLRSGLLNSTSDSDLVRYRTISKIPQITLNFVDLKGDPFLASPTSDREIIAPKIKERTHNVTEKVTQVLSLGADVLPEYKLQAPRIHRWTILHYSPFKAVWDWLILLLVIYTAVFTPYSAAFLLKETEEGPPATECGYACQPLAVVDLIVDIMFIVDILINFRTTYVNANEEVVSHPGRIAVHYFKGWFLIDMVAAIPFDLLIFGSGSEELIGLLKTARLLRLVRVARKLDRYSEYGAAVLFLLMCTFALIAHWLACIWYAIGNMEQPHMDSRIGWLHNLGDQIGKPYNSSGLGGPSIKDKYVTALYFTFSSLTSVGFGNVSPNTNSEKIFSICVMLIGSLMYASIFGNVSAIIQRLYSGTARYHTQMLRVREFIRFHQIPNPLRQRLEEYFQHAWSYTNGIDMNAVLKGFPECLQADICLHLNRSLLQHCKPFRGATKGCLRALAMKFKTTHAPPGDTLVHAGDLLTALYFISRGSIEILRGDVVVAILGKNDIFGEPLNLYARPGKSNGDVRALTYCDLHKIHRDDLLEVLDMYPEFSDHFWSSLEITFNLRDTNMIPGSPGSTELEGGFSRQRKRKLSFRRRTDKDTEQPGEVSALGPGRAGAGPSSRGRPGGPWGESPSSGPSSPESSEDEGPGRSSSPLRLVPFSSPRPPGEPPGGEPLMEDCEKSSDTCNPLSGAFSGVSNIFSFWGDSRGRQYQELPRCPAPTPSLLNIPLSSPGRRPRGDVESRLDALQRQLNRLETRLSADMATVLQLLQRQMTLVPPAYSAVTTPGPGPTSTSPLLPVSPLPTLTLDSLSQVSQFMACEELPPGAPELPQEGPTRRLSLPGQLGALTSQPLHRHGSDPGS

Structure (SMILES)	hERG current change (%, negative = inhibition) at 1uM [%]
COC(=O)C1C(=O)C2=C(CC1C)Nc1ccccc1NC2c1ccc(C)s1 (stereo not shown)	12.8
Cc1cc(C)c(NC(=O)CCc2c(C)noc2C)c(C)c1	17.9
Cc1ccc2c(Cl)cc(Cl)c(OCC(=O)OCC(=O)Nc3ccc(C#N)cc3)c2n1	6.52
O=C1NC(=O)c2cc(Oc3ccc([N+](=O)[O-])cc3)ccc21	10.6
CN(C)c1ccc(NS(=O)(=O)c2ccc(Cl)cc2)cc1	6.28
O=C(NCCN1CCN(c2ccccc2)CC1)c1cccc(Br)c1	-23.2
COc1ccc(-c2[nH]ncc2CN(C)CC2CCCCO2)cc1F (stereo not shown)	9.98
C=CCN(c1ccc(C(=O)NC(C)C)cc1)S(C)(=O)=O	-9.08
COc1ccc(N(CC(=O)NCCSc2ccccn2)S(=O)(=O)c2ccccc2)cc1OC	11.9
COc1cccc(N2CCN(C(=O)c3ccc(-c4ccccc4)cc3)CC2)c1	-34.4
COC(=O)c1ccc(OCC(O)CN2CCN(C(=O)c3ccco3)CC2)cc1.O=C(O)C(=O)O (stereo not shown)	1
CC(C)[C@H](NC(=O)OCc1ccccc1)C(=O)N[C@@H](Cc1c[nH]c2ccccc12)C(=O)O (Cbz-Val-Trp-OH)	4.26
O=C(Nc1ccc(N2CCN(C(=O)c3ccccc3F)CC2)cc1)c1ncn[nH]1	-0.254
Br.COc1ccc(NC2=NCCCCC2)cc1	16
CCCCC(=O)Nc1ccc(NC(=O)CC)cc1OC	10.7
Cc1ccc(C2(C)NC(=O)N(CC(=O)Nc3cc(C)on3)C2=O)cc1 (stereo not shown)	-14.2
CCCCn1nnc(NC(=O)C(c2ccccc2)c2ccccc2)n1	11.2
CN(Cc1ccccc1)C(NC(=O)c1ccco1)C(Cl)(Cl)Cl (stereo not shown)	14.9
COc1ccc(-c2nc3cc(C)ccn3c2NC(=O)c2ccccc2OC)cc1	12.1
COc1ccc(CONS(=O)(=O)c2ccc(NC(C)=O)cc2)cc1Cl	-3.94
CCN1CCN(c2ccc(NC(=O)c3ccc4c(c3)[nH]c(=O)n4Cc3ccc(F)cc3)cc2)CC1	-2.24
O=[N+]([O-])c1ccc2c(c1)nc1n2CCN(C2CCCCC2)C1	-1.75
Cc1ccc(C)c(-n2nnnc2SCC(=O)NCC2CCCO2)c1 (stereo not shown)	8.99

Structure (SMILES)	hERG current change (%, negative = inhibition) at 1uM [%]
COc1cccc(Cn2cc(/C=N/NC(=O)c3cc(O)cc(O)c3)c3ccccc32)c1	11
CC1=[N+]([O-])C(C)(C)CC(C)(C)c2ccccc21	8.62
COC(=O)c1ccccc1NC(=O)[C@@H]1CCC(=O)N1C1OC(=O)c2c1ccc(OC)c2OC (stereo partly shown)	10.2
COc1ccc(NC(=O)C2CC(=O)n3ncnc3N2)cc1 (stereo not shown)	4.49
Cc1c(C#N)c(N)nc(Cl)c1C#N	11.2
COC(=O)c1ccccc1NC(=O)CN1CCCCC1	32.9
COc1ccc(CCNC(=O)[C@H](CCSC)NC(=O)N2CCn3c2nc2ccccc23)cc1OC	12
CC1(OC(=O)c2cccs2)C(=O)C=C2C=C(c3ccc(C#N)cc3)OC=C2C1=O (stereo not shown)	7.98
CC1CCCC(C)N1C(=O)c1ccccc1Nc1ccc(SC(F)F)cc1 (stereo not shown)	5.69
CCC(Sc1ccc2nnc(CCNS(=O)(=O)c3ccc(OC)cc3)n2n1)C(=O)OC (stereo not shown)	3.39
COc1ccc(CC(=O)c2ccc(O)cc2O)cc1OC	9.41
Cc1cc(NC(=O)c2ccco2)ccc1NC(=O)Cc1cccs1	-3.62
Cc1ccc(-c2cnco2)cc1	10.4
O=C(CSC1=NS(=O)(=O)c2ccccc21)Nc1ccccc1	10.7
CCCCN=C1NN=C(c2ccc(C)c(C)c2)CS1	12.2
COc1ccc(OCCCCc2c(C)n[nH]c2C)cc1.Cl	12.1
NC(=O)CC(c1ccccc1)c1ccc2c(c1)OCO2 (stereo not shown)	7.05
O=C(O)c1ccc(F)c(S(=O)(=O)Nc2ccccc2Cl)c1	2.86
O=C(NC(=S)Nc1ncc(Br)cc1Br)c1cncc(Br)c1	4.04
Cc1nonc1OC(C)CNCCNc1ccc([N+](=O)[O-])cc1.Cl (stereo not shown)	-15.8
COc1ccc(CNS(=O)(=O)c2ccc3c(c2)NC(=O)CS3)cc1	2.4
CCOc1ccccc1C(=O)n1nc(C)cc1C	16.3
O=C(NCCC1=CCCCC1)C(=O)NCc1ccccc1	11.1

Structure (SMILES)	hERG current change (%, negative = inhibition) at 1uM [%]
Cc1cc(C(=O)Nc2ccc(Cl)cc2)on1	28.2
CC(C)Oc1ccc(C(CC(=O)O)Cc2ccccc2)cc1 (stereo not shown)	7.22
Cc1ccc(S(=O)(=O)N(CC(=O)N/N=C\c2cccs2)c2cccc3cccnc23)cc1	4.24
CCCOc1ccccc1C1NC(=O)NC(C)=C1C(=O)OCc1ccccc1 (stereo not shown)	5.23
CCOc1c(Nc2ccc(C(C)C)cc2)c(=O)c1=O	10.2
Cc1csc(NC(=O)c2cccc(S(=O)(=O)N3CCN(C)CC3)c2)n1	16.6
Cc1cc(-n2nc(C)cc2C)nc(N)n1	2.81
COc1ccc(NC(=O)CCS(=O)(=O)c2ccc3c(c2)oc(=O)n3C)cc1	21
O=C(NCc1ccncc1)c1ccc(NS(=O)(=O)c2ccc(F)cc2)cc1	6.46
COC(=O)C(C)NC(=O)c1ccc(C(C)(C)C)cc1 (stereo not shown)	7.44
Cc1cccc(NC(=O)CSc2nc3c(c(=O)[nH]2)CCCC3)c1C	0.812
CCOc1ccc(S(=O)(=O)N(CCO)CCO)cc1-c1nc2c(C(C)(C)C)nn(C)c2c(=O)[nH]1	15.3
O=C1NCCNC(=O)c2ccccc2OCCOc2ccccc21	4.34
Cc1nn(CC(=O)Nc2ccccn2)c(C)c1Br	6.5
CCN(C(=O)COC(=O)CSc1ccc(C)c(C)c1)C1CCS(=O)(=O)C1 (stereo not shown)	-1.21
CCOC(=O)C1CCN(Cc2c(F)cccc2Cl)CC1	-5.72
COc1ccc(NC(=O)CN(C)C(=O)c2cc(-c3ccncc3)nc3ccccc23)cc1	6.56
O=C(c1cc(Cl)cc(Cl)c1)N1CCOCC1	14.6
CSc1ccccc1NC(=O)c1ccccn1	1.22
COc1cc(C(=O)N2CCN(S(=O)(=O)c3cccs3)CC2)cc(OC)c1C	2.37
COc1cccc2cc(C(=O)C3=C(O)C(=O)N(CCN4CCOCC4)C3c3ccc(Cl)cc3)oc12 (stereo not shown)	14.5
COc1ccc(N2CCN(C(=O)C(CCSC)N=C3NS(=O)(=O)c4ccccc43)CC2)cc1 (stereo not shown)	-4.88
CCCCNC(=O)CCCn1c(=O)[nH]c2ccc(Br)cc2c1=O	8.93

Structure (SMILES)	hERG current change (%, negative = inhibition) at 1uM [%]
Cc1cc2nnc(SCC(=O)N3CCCCC3)n2c(N)n1	10.6
Cc1sc(NC(=S)NC(=O)c2cccs2)nc1-c1ccc(CC(C)C)cc1	6.24
O=C(O)Cc1sc(Nc2cccc3ccccc23)nc1-c1ccccc1	12.9
Cc1ccc(C(=O)Nc2cccc(C(F)(F)F)c2)cc1NC(=O)c1ccno1	0.3
O=C1NC(=O)C(c2ccc(F)cc2)N1 (stereo not shown)	20.1
CC1(C(=O)O)CCC(C(=O)NNC(=O)c2ccccc2Cl)C1(C)C (stereo not shown)	7.26
Cn1c(CCNC(=O)c2ccco2)nc2ccccc21	0.814
Cc1cnc(C(=O)OCC(=O)c2ccc(Br)s2)cn1	8.99
COc1ccc(OCCOC(=O)c2nc3nccc(C)n3n2)cc1	3.47
C=CCC1(CC=C)CCCN1C(=O)c1cc(COc2ccc(-n3cncn3)cc2)on1	-5.5
O=c1c(F)cn(C2CCCO2)c(=O)n1Cc1ccccc1F (stereo not shown)	9.46
Cc1ccc(S(=O)(=O)n2nc(OC(=O)c3c(-c4ccccc4Cl)noc3C)cc2N)cc1	13
COCCCNC(=S)N/N=C/c1ccc(OC)c(Br)c1	13.9
COc1cccc(NC(=O)CN2C(=O)c3cccnc3Oc3ccc(Cl)cc32)c1	3.02
Nc1ccccc1C(=O)N/N=C1\C2CN3CCN(C2)CC1(c1ccccc1)C3	-1.63
CC1(C)CC(=O)c2c(oc3ccc(NS(=O)(=O)c4cccc5cccnc45)cc23)C1	5.76
CCOc1ccc(NS(=O)(=O)c2cc(C(=O)N3CC(C)OC(C)C3)ccc2C)cc1 (stereo not shown)	9.18
COc1ccc(C)cc1NC(=O)C1C2C=CC(C2)C1C(=O)O (stereo not shown)	6.28
Cc1cccc(NC(=O)CSc2nccn2Cc2ccco2)c1C	10.4
O=C(NCc1ccc2c(c1)OCO2)C1CCN(S(=O)(=O)N2CCOCC2)CC1	6.89
CN(C(=O)C1CCCO1)c1nnc(-c2ccncc2)s1 (stereo not shown)	5.21
COc1ccccc1NS(=O)(=O)c1cccc(NC(=O)c2nn(C)c(=O)c3ccccc23)c1	5.59
